# Source: PubChem BioAssay AID485344 (National Center for Advancing Translational Sciences (NCATS), 2010)
# “And” between values parts separate entries of the source, which are not always exact repeats. Equal values may be shown once. The campaign covered roughly 340,000 compounds. About 6,900 (2%) were called active. Rule as the data show it: active = inhibition above about 30%; inactive = below that, where a call was filed. The list shows a part of the results, in another mix than the full data. The source gives no active or inactive call for entries shown without one.
# Molecular target: D(2) dopamine receptor (Homo sapiens) (UniProt P14416)
# UniProt P14416, sequence (P14416 whole entry, looked up): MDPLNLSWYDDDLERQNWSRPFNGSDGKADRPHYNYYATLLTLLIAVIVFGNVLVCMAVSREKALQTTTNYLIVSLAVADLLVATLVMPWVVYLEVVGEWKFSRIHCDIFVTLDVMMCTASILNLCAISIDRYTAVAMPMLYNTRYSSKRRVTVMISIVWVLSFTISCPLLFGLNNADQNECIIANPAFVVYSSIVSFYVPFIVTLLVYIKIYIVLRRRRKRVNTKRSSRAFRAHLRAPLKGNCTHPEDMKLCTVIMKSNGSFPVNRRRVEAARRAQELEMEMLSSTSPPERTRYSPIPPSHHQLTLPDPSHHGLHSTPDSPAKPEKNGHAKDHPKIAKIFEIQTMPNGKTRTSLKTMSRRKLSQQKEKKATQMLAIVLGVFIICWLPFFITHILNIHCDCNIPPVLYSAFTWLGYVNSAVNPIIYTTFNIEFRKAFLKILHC
# Assay: HTS Assay for Allosteric Antagonists of the Human D2 Dopamine Receptor: Primary Screen for Antagonists; also: 0% is about no effect
# Details: HEK293 TREx D2 cells, calcium flux, dopamine EC80; at 10 µM; stronger effect = higher value
# Procedure, shortened: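 Cells plated overnight at 30 C with tetracycline; no-wash calcium dye, 30–90 min RT; 10 s baseline; compound pinned; 180 s read; EC80 dopamine added; another 180 s read.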
row,SMILES,inhibition
1,COc1ccc([N+](=O)[O-])cc1NC(=O)Nc1ccccc1,active: 37%
2,O=C(Cn1c(=O)nc(-c2ccccc2)c2cc(Cl)ccc21)NCCc1ccc(Cl)cc1,-4.79%
3,Nc1c(-c2nc(-c3ccncc3)no2)nnn1CC(=O)Nc1ccccc1,-3.35%
4,COc1ccccc1CNCCSc1nnnn1C,-7.02%
5,COc1ccc(C(=O)N(Cc2ccco2)Cc2ccco2)cc1,14.7%
6,Cc1noc(/C=C/c2ccccc2F)c1S(=O)(=O)N1CCC(C(=O)N(C)Cc2ccco2)CC1,-15.1%
7,COC(=O)c1c(N)n(-c2cc(Cl)cc(Cl)c2)c2nc3ccccc3nc12,-7.14%
8,COc1ccc2nc(NC(=O)c3cc(=O)c4ccccc4o3)sc2c1,10.4%
9,COc1ccc(NC(=O)Cn2c(=O)n(CCc3ccccc3)c(=O)c3ccccc32)cc1,-1.69%
10,Cc1noc(-c2ccc(NCc3ccccc3)c([N+](=O)[O-])c2)n1,13.3%
11,COc1cccc(CNS(=O)(=O)c2cc3c(cc2C)n(C)c(=O)c(=O)n3C)c1,-2.46%
12,CCOc1ccc(NC(=O)Cn2nc(-c3ccncc3)ccc2=O)cc1,6.12%
13,CCCCNC(=O)c1c(C)oc2ncn(CC(C)C)c(=O)c12,-0.787%
14,O=C(c1cccc(Cl)c1)N1CCN(CCc2ccccn2)CC1,5.39%
15,O=C(NCc1nc2cccnc2n1Cc1ccc(F)cc1)c1ccccc1C(F)(F)F,15.5%
16,Cc1ccccc1OCC(=O)Nc1cc(-c2cccc(Br)c2)nn1-c1ccccc1,23.5%
17,Cc1cccc(N2CCN(S(=O)(=O)c3ccc(-c4cnc(C5CC5)o4)cc3)CC2)c1C,16.9%
18,COc1ccccc1CNC(=O)CC(c1ccc(F)cc1)N1Cc2ccccc2C1=O (stereo unspecified),0.264%
19,Cc1ccccc1-c1noc(-c2ccc(NCC3CCCO3)c([N+](=O)[O-])c2)n1 (stereo unspecified),10.4%
20,CCOC(=O)c1cccc(NC(=O)C(C)n2nc(C)c3c(C)n(-c4ccccc4)nc3c2=O)c1 (stereo unspecified),6.76%
21,Cc1oc(-c2ccccc2F)nc1CS(=O)(=O)CC(=O)N1CCN(c2ccccc2)CC1,20.5%
22,Cc1ccc([N+](=O)[O-])cc1NC(=O)CN(c1ccccc1)S(=O)(=O)N(C)C,-7.06%
23,COc1ccc(-c2[nH]c(-c3ccc(O)cc3)nc2-c2ccccc2)cc1,16.4%
24,COC(=O)c1cc(NC(=O)c2cc3c(-c4ccccc4F)nn(C)c3s2)cc(C(=O)OC)c1,7.27%

row,SMILES,inhibition
1,COc1ccc(OC)c(S(=O)(=O)NCC(c2ccc(N(C)C)cc2)N2CCOCC2)c1 (stereo unspecified),6.87%
2,O=C(NCC(c1ccco1)S(=O)(=O)c1cccs1)c1ccccc1 (stereo unspecified),3.61%
3,Cc1c(Cl)cccc1Nc1nn2c(=O)c3ccccc3nc2s1,-4.98%
4,COC(=O)c1cc2oc3ccccc3c2n1Cc1ccc(C)cc1,-1.92%
5,CCOC(=O)c1ccc(NC(=O)CN2C(=O)NC3(CCCCCCC3)C2=O)cc1,active: 38.4%
6,CCOC(=O)c1cc2c(=O)n3ccccc3nc2n(Cc2ccco2)c1=NC(=O)c1ccccc1Br,-1.54%
7,CCS(=O)(=O)N1CCc2cc(C(=O)Nc3ccc(Br)cc3F)ccc21,-15.5%
8,O=C(COC(=O)c1cc([N+](=O)[O-])ccc1N1CCOCC1)Nc1ccc(Cl)cc1,active: 41.8%
9,CC(=O)c1ccc(N2CCN(C(=O)c3cn(C)c(=O)c4c3c3ccccc3n4C)CC2)cc1,-10.5%
10,Cc1ccc(-n2c(=O)c3c(c4cc(C)ccc4n3C)n(CC(=O)Nc3ccc(F)cc3)c2=O)cc1,3.12%
11,COc1ccc(CNC(=O)COCc2cc(-c3ccc4c(c3)OCO4)on2)cc1,-0.158%
12,CCOC(=O)C1(Cc2cccc(OC)c2)CCN(Cc2cnc(SC)nc2)CC1,active: 92.7%
13,CCc1cccc(C)c1NC(=O)c1ccc2c(c1)CCN2S(=O)(=O)c1ccc(Cl)cc1,-4.55%
14,CCOc1ccc(C2C(C#N)=C(N)SC(N)=C2C#N)c(OCC)c1,active: 30.6%
15,COc1ccc(N(Cc2cccs2)C(=O)c2ccco2)cc1,18.3%
16,CCCCC(=O)Nc1nnc(S(=O)(=O)N(C)Cc2ccc(Cl)cc2)s1,-1.27%
17,OCC1(Cc2ccccc2)CCN(C2CCN(c3ccccc3F)CC2)CC1,active: 47.2%
18,Cc1cc(C)cc(NC(=O)CCc2c(C)nc3nc(CNC(=O)c4cccc(F)c4)nn3c2C)c1,-16.7%
19,COCCCNc1nc2c(c(=O)n(Cc3ccc(F)cc3)c(=O)n2C)n1C,-7.37%
20,Cc1csc(SCC(=O)Nc2cccc3nsnc23)n1,active: 32.7%
21,O=c1cc(COc2ccc(Cl)cc2Cl)nc2scc(-c3ccccc3)n12,12.4%
22,CC(CNC(=O)c1ccc2c(c1)nc1n2CCCCC1)c1ccccc1 (stereo unspecified),-2.3%
23,COc1ccccc1OCC(=O)N(Cc1ccco1)Cc1ccccc1F,11.4%
24,COc1ccc(-c2cc(C(=O)Nc3cc(Br)ccc3O)no2)cc1,active: 35.6%

row,SMILES,inhibition
1,COc1ccccc1-c1nn2c(=O)cc(CN3CCN(C(=O)Nc4ccc(C)cc4Cl)CC3)nc2s1,-17.2%
2,Cc1ccc(C2C(=O)N(C3CCC(C)CC3)CC(=O)N2C2CCCC2)cc1 (stereo unspecified),12.5%
3,Cc1cc(NS(=O)(=O)c2ccc(NC(=O)COc3c(C)ccc(C)c3C)cc2)nc(C)n1,-10.6%
4,CCOc1ccc(-n2c(=O)c3c(C)c(C)sc3n(CC(=O)C(C)(C)C)c2=O)cc1,-14.8%
5,O=C(CCC(=O)N1CCSc2ccccc21)Nc1ccc(Cl)cc1,-17%
6,COc1cccc(CNC(=O)c2cc(-c3ccc(Cl)cc3)n[nH]2)c1,10.3%
7,CCOc1cccc(C(=O)N(Cc2ccc(C)o2)C2CCS(=O)(=O)C2)c1 (stereo unspecified),16.7%
8,O=C(Cn1nc(-c2ccccc2)ccc1=O)NCCN1CCN(c2cccc(Cl)c2)CC1,active: 63.6%
9,COc1ccc(CNC(=O)c2ccc3c(c2)N(Cc2cc(C)ccc2C)C(=O)CS3)cc1,-2.4%
10,COc1ccc(CNc2nc(-c3ccc(Cl)cc3)nn2S(=O)(=O)c2ccc(C)cc2)cc1,0.0989%
11,COc1ccccc1CNS(=O)(=O)c1cc(Br)cc2c1N(C(=O)C1CC1)CC2,4.61%
12,CN(C)S(=O)(=O)N(CC(=O)Nc1ccc(C(F)(F)F)cc1)c1ccccc1,2.96%
13,CCc1ccc(NC(=O)c2nc3nc(C)cc(C(F)F)n3n2)cc1,-2.97%
14,Cc1nc(N2CCOCC2)c2c(C(=O)NCc3ccc(Cl)cc3)c(C)oc2n1,-6.53%
15,CC1(C)C(C=C(Cl)Cl)C1C(=O)N1CCN(Cc2ccccc2)CC1 (stereo unspecified),active: 78%
16,Cc1ccc(S(=O)(=O)N2CC=C(c3c(C)n(CC(=O)N4CCCC4)c4ccccc34)CC2)cc1C,-16.2%
17,COc1cc(OC)cc(C(=O)NCCc2csc3nc(-c4ccccc4F)nn23)c1,-2.68%
18,Cc1sc(-n2cccc2)c(C(C)NC(=O)Nc2cccc(C(F)(F)F)c2)c1C (stereo unspecified),9.84%
19,CCOC(=O)c1c(C)oc2ccc(N(C(=O)c3ccncc3)S(=O)(=O)c3ccc(CC)cc3)cc12,-9.82%
20,C=CCc1ccccc1OCC(O)CN1CCN(Cc2ccc3c(c2)OCO3)CC1 (stereo unspecified),active: 75% and active: 63.8%
21,O=C(CN1C(=O)COc2ccc(S(=O)(=O)NC3CCCC3)cc21)Nc1ccc(Cl)cc1F,0.382%
22,CCOC(=O)c1c(C)[nH]c(CCC(=O)Nc2cc(Cl)ccc2OC)c1C,6.63%
23,Cc1cc(C)c2sc(NC(=O)c3ccc(S(=O)(=O)N4CCCC4)cc3)nc2c1,6.03%
24,CCOc1ccc(NC(=O)C2(c3cccs3)CCOCC2)cc1,-8.74%

row,SMILES,inhibition
1,CCOC(=O)c1cccc(NC(=O)CCc2nc3cccnc3n2-c2ccccc2)c1,-14.2%
2,COc1ccccc1C(=O)Nc1nc2nc(C)cc(=O)n2[nH]1,-14.9%
3,CCc1nnc(SCc2c(F)cccc2Cl)c2cc3sccc3n12,-0.0418%
4,Cc1ccc(NC(=O)Cn2cc(C(=O)C3CC3)c3ccccc32)c(C)c1,16.9%
5,CSc1ccc(OC2CCN(Cc3ccccc3)CC2)cc1,active: 30.6%
6,CC(C)CCNC(=O)c1ccc2c(c1)NC(=O)C(CS(=O)(=O)Cc1ccc(F)cc1)N2 (stereo unspecified),8.14%
7,CC1=C(C(=O)N2CCN(c3cc(C)ccc3C)CC2)C2(CCC(C)CC2)OC1=O (stereo unspecified),14.6%
8,COc1ccc(C(C(=O)NCc2ccccc2)N(C(=O)Cn2nnc3ccccc32)c2cccc(OC)c2)cc1 (stereo unspecified),-21.9%
9,O=C(COc1ccc(F)cc1)OCc1cc(=O)n2nc(C3CCCCC3)sc2n1,11%
10,Cc1cc(-c2ccc(C)c(S(=O)(=O)NC(c3cccs3)C(C)C)c2)on1 (stereo unspecified),-0.0835%
11,COc1ccc(NC(=O)CCSc2nc(-c3ccc(OC)cc3)cc(C(F)(F)F)n2)cc1,-2.52%
12,O=C(NCCS(=O)(=O)N1CCN(c2ccccc2)CC1)C1CC(=O)N(c2ccc(F)cc2)C1 (stereo unspecified),6.14% and active: 32.5%
13,COc1ccccc1N1CCN(/N=C/c2cccc(OC)c2O)CC1,active: 58.9%
14,CC1=C(C(=O)Nc2ccccc2C)C(c2ccncc2)n2nc(SCc3ccccc3Cl)nc2N1 (stereo unspecified),-21.2%
15,Cc1cccc(-c2noc(-c3ccccc3NC(=O)C3CC(=O)N(c4ccccc4C)C3)n2)c1 (stereo unspecified),7.01%
16,Cc1cccc(NS(=O)(=O)c2ccccc2)n1,active: 31.3%
17,COc1ccc(S(=O)(=O)Nc2cccc(-c3ccc(N4CCC(C)CC4)nn3)c2)cc1OC,0.818%
18,Cc1nc2ccccc2n1CC(O)COC1CCCCC1 (stereo unspecified),active: 31.6%
19,CCn1c(=O)c2cc(C(=O)Nc3cc(OC)c(OC)c(OC)c3)sc2c2ccccc21,8.89%
20,COc1ccc(C(=O)Nc2nc3nc(C)c(Cc4ccccc4)c(=O)n3[nH]2)cc1OC,-15.8%
21,CC1=C(C(=O)Nc2cccnc2)C(c2cccc(Br)c2)n2nc(SCc3ccccc3)nc2N1 (stereo unspecified),1.02%
22,CCOc1ccc(CNC(=O)C2CCN(S(=O)(=O)N3CCC(C)CC3)CC2)cc1OC,-6.55%
23,CCCc1cc(=O)n2[nH]c(NC(=O)c3ccc(C(C)(C)C)cc3)nc2n1,0.565%
24,CC(=O)c1cccc(NC(=O)CN2C=NS(=O)(=O)c3ccc(C)cc32)c1,-3.51%
